{"source": "a collection of fitness landscapes (doi:10.1016/j.celrep.2020.107928)", "parents": {"B1": {"name": "Caulobacter ParB omega fusion; a variant is named by its letters at X, in order, B8GW30 (parent)", "chain": "MESVVVGEPGMSEGRRGLGRGLSALLGEVDAAPAQAPGEQLGGSREAPIEILQRNPDQPRRTFREEDLEDLSNSIREKGVLQPILVRPSPDTAGEYQIVAGERAWRAAQRAGLKTVPIMVRELDDLAVLEIGIIENVQRADLNVLEEALSYKVLMEKFERTQENIAQTIGKSXSHVANXMRLLXLPDEVQSYLVSGELTAXHARAIAAAADPVALAKQIIEGGLSVRETEALARKAPNLSAGKSKGGRPPRVKDTDTQALESDLSSVLGLDVSIDHRGSTGTLTITYATLEQLDDLCNRLTRGI"}}, "note": "Whole data set: some 81,000 sequences, median “one-hybrid fitness for binding NBS DNA” near -0.1, cut for the highest 2% near 0.36. The list shows a part of the results."}
{"variants_of": "B1", "experiment": "one-hybrid fitness for binding NBS DNA (the Noc-binding site; scaled: cognate 1, non-cognate 0); higher = stronger binding", "conditions": "with NBS DNA site", "method_in_brief": "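Fitness is the rescaled log change in variant-to-wild-type read ratio, measured by Illumina sequencing of plasmids before and after bacterial one-hybrid selection. The scale puts cognate at 1 and non-cognate at 0. Selection of Caulobacter ParB libraries, four specificity codons randomised, took place in E. coli USO with a HIS3 reporter, site 19 bp from the promoter, over 48 hours at 37°C on M9-minus-histidine with 0.1 mM IPTG and 5 mM 3-AT.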"}
{"variant": "YKTF", "one-hybrid fitness for binding NBS DNA": "≤ 0.2"}
{"variant": "CDRG", "one-hybrid fitness for binding NBS DNA": "≤ 0.2"}
{"variant": "HCTT", "one-hybrid fitness for binding NBS DNA": "≤ 0.2"}
{"variant": "KQKI", "one-hybrid fitness for binding NBS DNA": "≤ 0.2"}
{"variant": "FHRR", "one-hybrid fitness for binding NBS DNA": "≤ 0.2"}
{"variant": "HAAP", "one-hybrid fitness for binding NBS DNA": "≤ 0.2"}
{"variant": "WART", "one-hybrid fitness for binding NBS DNA": "≤ 0.2"}
{"variant": "RYRY", "one-hybrid fitness for binding NBS DNA": 0.301}
{"variant": "QETC", "one-hybrid fitness for binding NBS DNA": "≤ 0.2"}
{"variant": "PSMP", "one-hybrid fitness for binding NBS DNA": "≤ 0.2"}
{"variant": "KLKT", "one-hybrid fitness for binding NBS DNA": 0.243}
{"variant": "SNYT", "one-hybrid fitness for binding NBS DNA": "≤ 0.2"}
{"variant": "EHLF", "one-hybrid fitness for binding NBS DNA": "≤ 0.2"}
{"variant": "PGYE", "one-hybrid fitness for binding NBS DNA": "≤ 0.2"}
{"variant": "LAER", "one-hybrid fitness for binding NBS DNA": "≤ 0.2"}
{"variant": "VSQY", "one-hybrid fitness for binding NBS DNA": "≤ 0.2"}
{"variant": "RAST", "one-hybrid fitness for binding NBS DNA": 0.405}
{"variant": "CYHR", "one-hybrid fitness for binding NBS DNA": "≤ 0.2"}
{"variant": "VPSI", "one-hybrid fitness for binding NBS DNA": "≤ 0.2"}
{"variant": "QQCC", "one-hybrid fitness for binding NBS DNA": "≤ 0.2"}
{"variant": "SCGR", "one-hybrid fitness for binding NBS DNA": "≤ 0.2"}
{"variant": "TYYF", "one-hybrid fitness for binding NBS DNA": "≤ 0.2"}
{"variant": "GWNS", "one-hybrid fitness for binding NBS DNA": "≤ 0.2"}
{"variant": "GKGC", "one-hybrid fitness for binding NBS DNA": "≤ 0.2"}
{"variant": "VKGK", "one-hybrid fitness for binding NBS DNA": "≤ 0.2"}
{"variant": "TSCL", "one-hybrid fitness for binding NBS DNA": "≤ 0.2"}
{"variant": "TSTQ", "one-hybrid fitness for binding NBS DNA": "≤ 0.2"}
{"variant": "QMVA", "one-hybrid fitness for binding NBS DNA": "≤ 0.2"}
{"variant": "CAGI", "one-hybrid fitness for binding NBS DNA": "≤ 0.2"}
{"variant": "SWHS", "one-hybrid fitness for binding NBS DNA": "≤ 0.2"}
{"variant": "WSQP", "one-hybrid fitness for binding NBS DNA": "≤ 0.2"}
{"variant": "AGTD", "one-hybrid fitness for binding NBS DNA": "≤ 0.2"}
{"variant": "RSPP", "one-hybrid fitness for binding NBS DNA": "≤ 0.2"}
{"variant": "QLNN", "one-hybrid fitness for binding NBS DNA": "≤ 0.2"}
{"variant": "FLMG", "one-hybrid fitness for binding NBS DNA": "≤ 0.2"}
{"variant": "AMQG", "one-hybrid fitness for binding NBS DNA": "≤ 0.2"}
{"variant": "NITS", "one-hybrid fitness for binding NBS DNA": "≤ 0.2"}
{"variant": "HIQC", "one-hybrid fitness for binding NBS DNA": "≤ 0.2"}
{"variant": "MSRF", "one-hybrid fitness for binding NBS DNA": "≤ 0.2"}
{"variant": "FAKA", "one-hybrid fitness for binding NBS DNA": "≤ 0.2"}
{"variant": "RGTS", "one-hybrid fitness for binding NBS DNA": "≤ 0.2"}
{"variant": "MLQA", "one-hybrid fitness for binding NBS DNA": "≤ 0.2"}
{"variant": "QWRG", "one-hybrid fitness for binding NBS DNA": "≤ 0.2"}
{"variant": "VSDE", "one-hybrid fitness for binding NBS DNA": "≤ 0.2"}
{"variant": "DSIS", "one-hybrid fitness for binding NBS DNA": "≤ 0.2"}
{"variant": "EGFS", "one-hybrid fitness for binding NBS DNA": "≤ 0.2"}
{"variant": "GRVS", "one-hybrid fitness for binding NBS DNA": "≤ 0.2"}
{"variant": "KCKR", "one-hybrid fitness for binding NBS DNA": 0.397}
{"variant": "YQRM", "one-hybrid fitness for binding NBS DNA": "≤ 0.2"}
{"variant": "RDRE", "one-hybrid fitness for binding NBS DNA": "≤ 0.2"}
{"variant": "GPLT", "one-hybrid fitness for binding NBS DNA": "≤ 0.2"}
{"variant": "TVCR", "one-hybrid fitness for binding NBS DNA": "≤ 0.2"}
{"variant": "PRMY", "one-hybrid fitness for binding NBS DNA": "≤ 0.2"}
{"variant": "RWPA", "one-hybrid fitness for binding NBS DNA": "≤ 0.2"}
{"variant": "QCRM", "one-hybrid fitness for binding NBS DNA": 0.505}
{"variant": "CHAI", "one-hybrid fitness for binding NBS DNA": "≤ 0.2"}
{"variant": "QHCV", "one-hybrid fitness for binding NBS DNA": "≤ 0.2"}
{"variant": "CSFN", "one-hybrid fitness for binding NBS DNA": "≤ 0.2"}
{"variant": "QQKA", "one-hybrid fitness for binding NBS DNA": 0.628}
{"variant": "SYCW", "one-hybrid fitness for binding NBS DNA": "≤ 0.2"}
{"variant": "KTAY", "one-hybrid fitness for binding NBS DNA": "≤ 0.2"}
{"variant": "TDYV", "one-hybrid fitness for binding NBS DNA": "≤ 0.2"}
{"variant": "KNSI", "one-hybrid fitness for binding NBS DNA": "≤ 0.2"}
{"variant": "QSGQ", "one-hybrid fitness for binding NBS DNA": "≤ 0.2"}
{"variant": "SVTG", "one-hybrid fitness for binding NBS DNA": "≤ 0.2"}
{"variant": "NRMR", "one-hybrid fitness for binding NBS DNA": "≤ 0.2"}
{"variant": "QSYC", "one-hybrid fitness for binding NBS DNA": "≤ 0.2"}
{"variant": "YIRS", "one-hybrid fitness for binding NBS DNA": "≤ 0.2"}
{"variant": "SEPD", "one-hybrid fitness for binding NBS DNA": "≤ 0.2"}
{"variant": "IAAL", "one-hybrid fitness for binding NBS DNA": "≤ 0.2"}
{"variant": "TTPM", "one-hybrid fitness for binding NBS DNA": "≤ 0.2"}
{"variant": "MDPS", "one-hybrid fitness for binding NBS DNA": "≤ 0.2"}
{"variant": "LTME", "one-hybrid fitness for binding NBS DNA": "≤ 0.2"}
{"variant": "WGGG", "one-hybrid fitness for binding NBS DNA": "≤ 0.2"}
{"variant": "VPQV", "one-hybrid fitness for binding NBS DNA": "≤ 0.2"}
{"variant": "KNEG", "one-hybrid fitness for binding NBS DNA": "≤ 0.2"}
{"variant": "RTND", "one-hybrid fitness for binding NBS DNA": "≤ 0.2"}
